For orientation: IC50 means the point on the concentration scale where inhibition reaches its midpoint. The low end stands for greater potency in that assay, the high end for weaker potency in that assay.

The test concerns Mycobacterium tuberculosis H37Rv growth inhibition, no glycerol. In words: Confirmatory growth inhibition assay, Mycobacterium tuberculosis H37Rv, absence of glycerol (AID 504901). The note with it: measured here: IC50 of growth inhibition.

The source holds more than one record for some entries. They are shown here; other results are not. An entry can have further records. Values that stand side by side are repeats (runs, samples, wells, individuals or studies). A tag in brackets gives the origin of a value. The letters are not those of the source and start again with each entry.

`O=C(CSc1nc2ccccc2c(=O)[nH]1)NC1CCCCC1`: the IC50 is 330 nM [sample A] and 20 nM [sample B].

Source of the values: PubChem BioAssay AID504901 (Southern Research Specialized Biocontainment Screening …, 2011).
